Experimental findings from ChEMBL document CHEMBL4888484, “Replenishing the malaria drug discovery pipeline: Screening and hit evaluation of the MMV Hit Generation Library 1 (HGL1) against asexual blood stage Plasmodium falciparum ,using a nano luciferase reporter read-out” (2022) are described below.

Structures are written as SMILES. The whole screen tested about 150,000 compounds, of which about 540 (0.36%) showed an effect of 50% or more. The list shows a part of the results.

In this experiment the test system is Plasmodium falciparum. The experiment is described as follows: Primary screen in NF54 nanoGlo assay, in single point, at 2uM, 72h; a lower Z score goes with more inhibition. The class given is functional, Erythrocyte. The settings on record: timepoint 72 hour.
As to `O=S(=O)(c1cccnc1)N1CC[C@H](c2nc(C3CC3)no2)C1`, the “% Inhibition” value is reported as -6% and the Z score stood at 0.68.
On the same counts, the results for `Cc1ccc(-c2nc(CC(N)=O)nn2C2CCCCC2)s1` are -13% and 1.25.
On to `CO[C@H]1[C@H](NC(=O)COc2ccccc2)c2ccccc2C12CCN(C(=O)Cc1nc(C)n[nH]1)CC2`, for which the “% Inhibition” value was -11% and the Z score amounted to 1.34.
Turning to `C[C@@H](COc1ccccc1)NC(=O)CCNC(=O)OCC(F)(F)F`, the “% Inhibition” value is recorded as -2% and the Z score worked out at 0.27.
Consider `COCC1(C(=O)NCCn2ccnn2)CCC1`, for which the “% Inhibition” value is 1% and the Z score was -0.15.
On the same counts, the results for `COC(=O)c1cc(S(=O)(=O)N(C)CC(=O)Nc2ccc3c(c2)OCCO3)cn1C` are -4% and 0.71.
On the same counts, the results for `CC(=O)Nc1nc(C(=O)NCCc2ccc3c(c2)OCCO3)cs1` are 0% and 0.06.
On the same counts, the results for `O=C(c1ccncc1)N1CCC(F)(C(=O)NCC2CC2)CC1` are -10% and 1.32.
Consider `COc1ccccc1C1c2[nH]c3ccccc3c2C[C@H]2C(=O)N(C(C)C)CC(=O)N12` (stereo partly specified), for which the “% Inhibition” value was -8% and the Z score amounted to 1.17.
On the same counts, the results for `COc1cccc(C(=O)NCC(=O)N2CCC([C@]3(C)NC(=O)NC3=O)CC2)c1` are 0% and -0.04.
On the same counts, the results for `c1ccc(C2OC(c3ccco3)N(c3ccccc3)C2c2ccccc2)cc1` (stereo unspecified) are -3% and 0.32.
On the same counts, the results for `COc1ccc(CCc2nnc(CCC(=O)N3CCC[C@H](OC)C3)o2)cc1` are 8% and -0.71.
For `Cc1cc(C)cc(-c2ncnc(Oc3cccc(F)c3)c2N)c1`, the “% Inhibition” value is recorded as -4% and the Z score came out at 0.67.
On the same counts, the results for `Cn1nccc1-c1ccc(CNC(=O)Cn2nnc3ccccc32)cn1` are -20% and 2.33.
On the same counts, the results for `COc1cccc(-c2nnnn2[C@H]2CO[C@H]3[C@@H]2OC[C@@H]3NC(=O)COc2ccccc2)c1` are 8% and -0.91.
On the same counts, the results for `Cc1noc([C@H]2C[C@@H](O)CN2c2nc3ccccc3n2C)n1` are -17% and 1.51.
For the compound `C[C@@H](CCc1nc(CC(N)=O)nn1-c1ccc(F)cc1)N1CCOCC1`, the “% Inhibition” value is -3% and the Z score stood at 0.39.
On the same counts, the results for `COc1ccc([C@@H]2c3[nH]c4ccccc4c3CCN2Cc2ccccc2F)cc1` are -1% and 0.15.
On the same counts, the results for `N#Cc1ncn(CCCC(=O)N2CCCCC2)n1` are -1% and 0.1.
On the same counts, the results for `O=C(Nc1onc2c1CCC2)c1cccc2ccccc12` are 20% and -2.27.
As for `COCCC(=O)NCCn1cc(-c2nc(-c3ccsc3)no2)nn1`, the “% Inhibition” value is -21% and the Z score stood at 3.91.
For the compound `O=C(NCC1CCN(Cc2nc3ncccn3n2)CC1)c1cc(C2CC2)no1`, the “% Inhibition” value is -21% and the Z score worked out at 2.64.
On the same counts, the results for `Fc1ccc(-c2nc([C@H]3CCOC3)no2)cc1COCC1CC1` are 2% and -0.2.
